Source: patent publication US20050147610A1 (AbbVie / Abbott, published 2005)

Tests used:
[1] = molecular target: T1, NEM-huIL-18 (recombinant mature human IL-18 treated with N-ethyl maleiamide) (human, UniProt Q14116 37-193, cysteines protected with N-ethyl maleiamide (NEM)); test: Biacore, NEM-cys protected rhuIL-18
T1 construct: monomeric; also called NEM-IL-18; NEM-rhuIL-18

[2] = molecular target: T2, (4C/A)-huIL-18 (4C/A mutant of mature human IL-18) (human, UniProt Q14116 37-193); test: BIACORE
T2 construct: All four Cys of mature IL-18 are changed to Ala; also called 4C/A mutant of IL-18; Cysteine > Alanine mutant BV derived rec. human IL-18

125I labeled rhu-IL-18 [3] = molecular target: T3, 125I labeled rhu-IL-18 (human, UniProt Q14116 37-193, NEM-treated cysteines; 125I label on lysine residues); test: RBA: inhibition of 125I-rhu-IL-18 binding to IL-18Rαβ on KG-1 cells
[4] = molecular target: T2, (4C/A)-huIL-18 (4C/A mutant of mature …); test: Biacore
[5] = molecular target: T1, NEM-huIL-18 (recombinant mature human …); test: Biacore
[6] = molecular target: T4, natural human IL-18 (endogenous, human whole blood) (human, UniProt Q14116 37-193); test: cell-based or functional assay
[7] = molecular target: T1, NEM-huIL-18 (recombinant mature human …); test: cell-based or functional assay
125I labeled rhu-IL-18 [8] = molecular target: T3, 125I labeled rhu-IL-18; test: RBA: inhibition of 125I-rhu-IL-18 binding to IL-18Rαβ on KG-1 cells; remark: listed apart in the source
[9] = molecular target: T4, natural human IL-18 (endogenous, human …); test: cell-based or functional assay; remark: listed apart in the source
[10] = molecular target: recombinant mature human IL-18 (preparation not specified) (human, UniProt Q14116 37-193); test: cell-based or functional assay
125I labeled rhu-IL-18 [11] = molecular target: T3, 125I labeled rhu-IL-18; test: RBA: inhibition of 125I-rhu-IL-18 binding to IL-18Rαβ on KG-1 cells; remark: listed apart in the source
[12] = molecular target: T2, (4C/A)-huIL-18 (4C/A mutant of mature …); test: BIACORE, (4C/A)-HuIL-18
recombinant human IL-7 = molecular target: T5, recombinant human IL-7 (human, UniProt P13232 26-177); test: BIACORE, antibody captured, cytokine in solution
T5 sequence (looked up): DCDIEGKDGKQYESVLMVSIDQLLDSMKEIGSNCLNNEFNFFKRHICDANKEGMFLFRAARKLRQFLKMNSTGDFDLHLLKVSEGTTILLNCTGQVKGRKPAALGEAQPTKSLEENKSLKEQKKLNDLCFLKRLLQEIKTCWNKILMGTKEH

recombinant human LTα2β1 = molecular target: T6, recombinant human LTα2β1 (human, UniProt P01374 35-205; Q06643 49-244, limits assumed); test: BIACORE, antibody captured, cytokine in solution
T6 construct: Copies read from the printed name
T6 sequence (looked up) 1: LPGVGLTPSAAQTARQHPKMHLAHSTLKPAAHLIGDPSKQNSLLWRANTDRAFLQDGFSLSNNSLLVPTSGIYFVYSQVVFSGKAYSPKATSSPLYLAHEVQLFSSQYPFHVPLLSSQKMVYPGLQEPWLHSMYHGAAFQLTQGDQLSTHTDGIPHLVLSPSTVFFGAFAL
T6 sequence (looked up) 2: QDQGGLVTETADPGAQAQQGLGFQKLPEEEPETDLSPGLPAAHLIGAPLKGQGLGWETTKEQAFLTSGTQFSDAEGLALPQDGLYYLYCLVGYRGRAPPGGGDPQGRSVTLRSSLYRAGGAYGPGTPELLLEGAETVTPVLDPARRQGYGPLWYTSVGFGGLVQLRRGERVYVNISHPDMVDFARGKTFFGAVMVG

recombinant human IL-15 = recombinant human IL-15 (human, UniProt P40933 in part); test: BIACORE, antibody captured, cytokine in solution
Sequence of recombinant human IL-15 (P40933 49-162 limits assumed): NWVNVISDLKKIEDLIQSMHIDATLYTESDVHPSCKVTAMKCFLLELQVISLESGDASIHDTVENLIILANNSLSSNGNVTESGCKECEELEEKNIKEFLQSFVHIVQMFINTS

recombinant human IL-13 = recombinant human IL-13 (human, UniProt P35225 in part, limits assumed); test: BIACORE, antibody captured, cytokine in solution
Sequence of recombinant human IL-13 (P35225 35-146 limits assumed): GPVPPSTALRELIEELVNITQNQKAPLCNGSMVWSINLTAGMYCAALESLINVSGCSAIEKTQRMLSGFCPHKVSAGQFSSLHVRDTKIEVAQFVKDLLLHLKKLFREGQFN

recombinant human IL-11 = molecular target: T7, recombinant human IL-11 (human, UniProt P20809 22-199); test: BIACORE, antibody captured, cytokine in solution
T7 sequence (looked up): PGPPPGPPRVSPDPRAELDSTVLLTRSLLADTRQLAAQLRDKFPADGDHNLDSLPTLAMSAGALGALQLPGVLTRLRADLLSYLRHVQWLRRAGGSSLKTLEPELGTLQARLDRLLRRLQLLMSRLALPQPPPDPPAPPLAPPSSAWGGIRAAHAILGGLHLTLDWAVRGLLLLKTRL

recombinant human IFNγ = molecular target: T8, recombinant human IFNγ (human, UniProt P01579 24-166, limits assumed); test: BIACORE, antibody captured, cytokine in solution
T8 sequence (looked up): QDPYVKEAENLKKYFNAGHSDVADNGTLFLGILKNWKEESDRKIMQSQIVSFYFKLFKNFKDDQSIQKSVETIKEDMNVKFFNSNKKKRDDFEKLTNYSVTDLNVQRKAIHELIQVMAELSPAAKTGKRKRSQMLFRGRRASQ

B1: 2.5(E)mg1 (antibody, human IgG1, kappa, L234A L235A)
heavy: ZVQLVQSGTEVKKPGESLKISCKGSGYTVTSYWIGWVRQMPGKGLEWMGFIYPGDSETRYSPTFQGQVTISADKSFNTAFLQWSSLKASDTAMYYCARVGSGWYPYTFDIWGQGTMVTVSSASTKGPSVFPLAPSSKSTSGGTAALGCLVKDYFPEPVTVSWNSGALTSGVHTFPAVLQSSGLYSLSSVVTVPSSSLGTQTYICNVNHKPSNTKVDKKV[letters of human IgG1 Fc with changes not shown]
light: EIVMTQSPATLSVSPGERATLSCRASESISSNLAWYQQKPGQAPRLFIYTASTRATDIPARFSGSGSGTEFTLTISSLQSEDFAVYYCQQYNNWPSITFGQGTRLEIKRTVAAPSVFIFPPSDEQLKSGTASVVCLLNNFYPREAKVQWKVDNALQSGNSQESVTEQDSKDSTYSLSSTLTLSKADYEKHKVYACEVTHQGLSSPVTKSFNRGEC
notes: Human IgG1/kappa with L234A, L235A (mg1); also called 2.5(E)mg1 HuMAb; anti-IL-18 HuMAb 2.5(E)mg1
- Kd [1]: 0.31 nM
- Kd [2]: 0.196 nM
- koff [2]: 5.24e-05 s⁻¹
- kon [2]: 268000 M⁻¹ s⁻¹
- IC50 (125I labeled rhu-IL-18 [3]): 2.4 nM
- Kd [4]: 0.2 nM
- Kd [5]: 0.3 nM
- WBA (IC50, nM) [6]: 3 nM
- KG-1 (IC50, nM) [7]: 0.2 nM
- IC50 (125I labeled rhu-IL-18 [8]): 2.38 nM
- WBA, Neutralization Potency in vitro (IC50, nM) [9]: 3 nM
- KG-1, Neutralization Potency in vitro (IC50, nM) [10]: 0.2 nM
- IC50 (125I labeled rhu-IL-18 [11]): < 2 nM
- Kd [12]: 0.196 nM
- koff [12]: 5.24e-05 s⁻¹
- kon [12]: 268000 M⁻¹ s⁻¹
- binding result (recombinant human IL-7): no binding (tested: 1 µM)
- binding result (recombinant human LTα2β1): no binding (tested: 1 µM)
- binding result (recombinant human IL-15): no binding (tested: 1 µM)
- binding result (recombinant human IL-13): no binding (tested: 1 µM)
- binding result (recombinant human IL-11): no binding (tested: 1 µM)
- binding result (recombinant human IFNγ): no binding (tested: 1 µM)

Where two headings read alike, the source gives them in different places.
